# Out of some 140,000 compounds screened, about 240 (0.17%) were called active. Inconclusive means that the source gave no clear call. Such entries were picked first, then a sample of the others. Calls follow the shape of the dose curve; as a rule, active = well fitted inhibition curve with a large enough effect; inconclusive = small, poorly fitted or top-dose-only effect; inactive = no such curve, though single readings can be large or run the other way. Where the call is inconclusive, the potency comes from a doubtful curve fit.
# Test: Primary qHTS assay for inhibitors of alpha-synuclein gene (SNCA) expression; also: nearly all actives have a fitted effect of over 45% in size;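 as to activity change, negative = inhibition: plate controls were DMSO cells for no effect and cell-free wells for full effect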
# Settings: HEK-293 SNCA-luciferase knock-in, luminescence, 24 h; activity change, negative = inhibition: at 57.2 µM (top of the series) unless noted
# Potency is read from the fitted curve at half-maximal effect; tags tell the direction and shape of the fitted curve.
SMILES,"activity change, negative = inhibition",Potency
COc1ccc(-c2noc([C@@H]3C[C@@H](O)CN3C(C)C)n2)cc1,inactive: 175% [at 87.6 µM],
CC(=O)c1cccc(NC(=O)c2cc(-c3ccc4c(c3)OCCO4)on2)c1,,"inconclusive: 14.1 µM [inhibitor, partial curve, poor fit]"
CC(=O)Nc1ccc(CN2CCC3(CC2)CNc2ccccc2[S+](=O)([O-])N3)cc1,,"inconclusive: 8.91 µM [inhibitor, single point]"
COc1ccccc1OCCNC(=O)c1cc2n(n1)CC(c1ccc(Cl)cc1)OC2 (configuration not stated),,"inconclusive: 3.16 µM [inhibitor, partial curve, poor fit]"
Cc1noc(C2CC3(CCN(C(=O)CCc4c[nH]c5ccccc45)CC3)CN2C)n1 (configuration not stated),inactive: 15%,
CCN(CC)C(=O)C1CCCN(c2ncnc3c2nc2n3CCCCC2)C1 (configuration not stated),,"inconclusive: 10 µM [inhibitor, partial curve, poor fit]"
Cc1ccccc1CN1C(=O)C(O)(CC(=O)c2cccc(Br)c2)c2ccccc21 (configuration not stated),,"inconclusive: 1 µM [inhibitor, partial curve, poor fit]"
O=C(NCc1cccc(Cl)c1)c1nc2sccn2c1-c1ccc(C(F)(F)F)cc1,inactive: -25.2%,
COc1cc(C)ccc1OCC(=O)c1ccc2c(c1)N(CCCC(=O)NCC1CC1)C(=O)CO2,inactive: -5.91%,
O=C(NCc1ccccc1)c1ccc2c(c1)OCCN(c1ccccc1)C2,,"inconclusive: 7.08 µM [inhibitor, full curve]"
COc1cc(NC(=O)Cn2c(-c3ccc(F)cc3)nc(C)c(CCO)c2=O)cc(OC)c1,,"inconclusive: 39.8 µM [inhibitor, single point]"
O=[S+]([O-])(NC1CCN(c2ccnc3ccnn23)C1)c1cccs1 (configuration not stated),inactive: 0.343% [at 87.6 µM],
COc1ccc(Nc2nc(-c3ccccc3F)no2)cc1OC,inactive: 74.9%,
COc1ccc(Br)cc1CNC(=O)c1ccc(-n2c(C)cc3c2CCC(C)C3)cc1 (configuration not stated),,"inconclusive: 39.8 µM [inhibitor, single point]"
CC(C)(C)CN[C@@H]1CO[C@H](CNC(=O)c2ccc(F)cc2)[C@H]1O,,"inconclusive: 8.91 µM [inhibitor, single point]"
Cn1c(Cn2cccn2)nnc1C1CC(NC(=O)c2ccsc2)C1 (configuration not stated),,"inconclusive: 11.2 µM [inhibitor, single point]"
O=C1N(c2ccccc2)c2ccccc2C12CCN(CC1CC1)C2 (configuration not stated),,"inconclusive: 44.7 µM [inhibitor, single point]"
CCc1n[nH]c(CC2CCN(C(=O)Cc3cccc(F)c3)CC2)n1,inactive: -22.2%,
CCOc1ccc(CCNC(=O)c2nn(-c3ccc(OC)cc3)c(=O)c3c2c2ccccc2n3C)cc1OCC,,"inconclusive: 7.08 µM [inhibitor, single point]"
CN(C)c1cccc(NC(=O)c2ccc3c(c2)NC(C)(COc2ccccc2)CO3)c1 (configuration not stated),,"inconclusive: 17.8 µM [inhibitor, partial curve, poor fit]"
O=C1NCN(Cc2ccc(Cl)cc2)C12CCN(Cc1ccc(F)cc1)CC2,,"inconclusive: 28.2 µM [inhibitor, single point]"

SMILES,"activity change, negative = inhibition",Potency
O=C(c1ccc(Cl)cc1)N1CC2(CCN(Cc3c[nH]c4ccccc34)CC2)Cc2ccccc21,,"inconclusive: 39.8 µM [inhibitor, single point]"
COc1cccc2nc(-c3cccs3)nc(NN3C(=O)C=C(C)C3=O)c12,,"inconclusive: 3.04 µM [inhibitor, partial curve, poor fit]"
Cc1ccc(NC(CNS(=O)(=O)c2ccc(Cl)cc2)c2ccccc2)cc1 (configuration not stated),,"inconclusive: 39.8 µM [inhibitor, single point]"
COc1ccccc1C(=O)N1CCC2(CC1)COc1ccccc1CN2,inactive: -8.55% [at 87.6 µM],
N#Cc1ccc(CN2CCn3c(nnc3C3CCCNC3)C2)cc1 (configuration not stated),,"inconclusive: 39.8 µM [inhibitor, single point]"
O=C(c1ccc(Cl)cc1)N1CC2(CCCN2C2COC2)Cc2ccccc21 (configuration not stated),inactive: -7.59%,
Oc1ccc(C=Cc2cc(O)cc(O)c2)cc1,,active: 12.1 µM
CC(C)CNC(=O)c1cc(-c2ccc(F)cc2)c2nncn2n1,,"inconclusive: 8.91 µM [inhibitor, single point]"
COc1ccccc1CNC(=O)c1c(OC)cc(=O)n2c1CCCC2,,"inconclusive: 39.8 µM [inhibitor, partial curve, poor fit]"
CCOc1ccccc1NC(=O)CSc1nccn1Cc1ccc(F)cc1,,"inconclusive: 39.8 µM [inhibitor, single point]"
CC(C)(C)c1ccc(C(=O)Nc2nc3c(s2)C[C@@H]2[C@](C)(CO)[C@H](O)CC[C@@]2(C)[C@@H]3CC(=O)N2CCOCC2)cc1,inactive: 0.483%,
COc1ccc(C(=O)N2CCOCC3(CN(Cc4cc(C)cc(F)c4)C3)C2)cc1OC,,"inconclusive: 10 µM [inhibitor, full curve, poor fit]"
CCCCNC(=O)[C@@H](c1ccccc1)N1Cc2ccccc2C1=O,,"inconclusive: 7.08 µM [inhibitor, single point]"
Cc1cccc(OCCCCn2c(C3CC(=O)N(c4ccc(C)cc4C)C3)nc3ccccc32)c1 (configuration not stated),,"inconclusive: 39.8 µM [inhibitor, single point]"
COc1ccc(NC(=O)c2ccc3c(c2)NC(C)(CNc2ccccc2)CO3)cn1 (configuration not stated),,"inconclusive: 25.1 µM [inhibitor, single point]"
CCN1c2cc(C(=O)NCc3cccc(C)c3)ccc2C(=O)N2CCCCCC21 (configuration not stated),,"inconclusive: 10 µM [inhibitor, partial curve, poor fit]"
O=C1CN(C(=O)CCC(=O)N2CCC(CCOc3ccccc3F)C2)c2ccccc2N1 (configuration not stated),,"inconclusive: 35.5 µM [inhibitor, single point]"
COc1ccc(-c2nnc(C[C@@H]3C[C@@H](C(C)C)[C@H](CNc4ccccn4)C=C3C)o2)cc1,,"inconclusive: 56.2 µM [inhibitor, single point]"
CCC(=O)N1CCc2c(C(=O)O)cccc21,inactive: 138%,
COc1ccc(CNC(=O)N2CCc3nc(-c4ccccc4)[nH]c3C2)cc1,inactive: -8.08%,
N#Cc1cccc(NC(=O)O[C@@H]2CO[C@H]3[C@@H]2OC[C@@H]3Nc2nccc(-c3ccc4c(c3)OCO4)n2)c1,inactive: 12.7%,

# Source: PubChem BioAssay AID1671194 (National Center for Advancing Translational Sciences (NCATS), 2021)
